# This is one part of the list.
# B1: DETC sTCR (Mus musculus) (protein)
# chain: LDVYLEPVAKTFTVVAGDPASFYCTVTGGDMKNYHMSWYKKNGTNALFLVYKLNSNSTDGGKSNLKGKINISKNQFILDIQKATMKDAGTYYCGSDIGGSSWDTRQMFFGTGIELFVEPKSQPPAKPSVFIMKNGTNVACLVKDFYPKEVTISLRSSKKIVEFDPAIVISPSGKYSAVKLGQYGDSNSVTCSVQHNSETVHSTDFEPYANSFNNEKLPEPENDTQISEPCSSADLVPRGSTTAPSAQLKKKLQALKKKNAQLKWKLQALKKKLAQHHHHHHDSWISQDQLSFTRRPNKTVHISCKLSGVPLHNTIVHWYQLKEGEPLRRIFYGSVKTYKQDKSHSRLEIDEKDDGTFYLIINNVVTSDEATYYCACWDSSGFHKVFAEGTKLIVIPSDKRLDADISPKPTIFLPSVAETNLHKTGTYLCLLEKFFPDVIRVYWKEKDGNTILDSQEGDTLKTNDTYMKFSWLTVPERAMGKEHRCIVKHENNKGGADQEIFFPSIKKVAVSTKPTTCSSADLVPRGSTTAPSAQLEKELQALEKENAQLEWELQALEKELAQLNDIFEAQKIEW
# Key:
# Assay in all cases: glycan array binding signal (z-score within array); higher = stronger binding
# Conditions in all cases: glycan notation: IUPAC condensed, linker removed
# [1] = target: Fuc(a1-2)Gal
# In short: (§1)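 The binding signal is a Z-score computed within each array and averaged over linkers. Arrays of the same protein sequence at different concentrations or buffers were also averaged together. Data originate from 3228 arrays in the Consortium for Functional Glycomics database, kept only where the protein sequence was available.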
# [2] = target: Fuc(a1-2)Gal(b1-3)GalNAc
# In short: as §1
# [3] = target: Fuc(a1-2)Gal(b1-3)GalNAc(b1-3)Gal
# In short: as §1
# [4] = target: Fuc(a1-2)Gal(b1-3)GalNAc(b1-3)Gal(a1-4)Gal(b1-4)Glc
# In short: as §1
# [5] = target: Fuc(a1-2)Gal(b1-3)GalNAc(b1-4)[Neu5Ac(a2-3)]Gal(b1-4)Glc
# In short: as §1
# [6] = target: Fuc(a1-2)Gal(b1-3)GlcNAc
# In short: as §1
# [7] = target: Fuc(a1-2)Gal(b1-3)GlcNAc(b1-2)Man(a1-3)[Fuc(a1-2)Gal(b1-3)GlcNAc(b1-2)Man(a1-6)]Man(b1-4)GlcNAc(b1-4)GlcNAc
# In short: as §1
# [8] = target: Fuc(a1-2)Gal(b1-3)GlcNAc(b1-3)Gal(b1-4)Glc
# In short: as §1
# [9] = target: Fuc(a1-2)Gal(b1-3)GlcNAc(b1-3)[Gal(b1-4)[Fuc(a1-3)]GlcNAc(b1-6)]Gal(b1-4)Glc
# In short: as §1
# [10] = target: Fuc(a1-2)Gal(b1-3)[Fuc(a1-4)]GlcNAc
# In short: as §1
# [11] = target: Fuc(a1-2)Gal(b1-3)[Fuc(a1-4)]GlcNAc(b1-2)Man(a1-3)[Fuc(a1-2)Gal(b1-3)[Fuc(a1-4)]GlcNAc(b1-2)Man(a1-6)]Man(b1-4)GlcNAc(b1-4)GlcNAc
# In short: as §1
# [12] = target: Fuc(a1-2)Gal(b1-4)Glc
# In short: as §1
# [13] = target: Fuc(a1-2)Gal(b1-4)Glc6S
# In short: as §1
# [14] = target: Fuc(a1-2)Gal(b1-4)GlcNAc
# In short: as §1
# [15] = target: Fuc(a1-2)Gal(b1-4)GlcNAc(b1-2)Man(a1-3)[Fuc(a1-2)Gal(b1-4)GlcNAc(b1-2)Man(a1-6)]Man(b1-4)GlcNAc(b1-4)GlcNAc
# In short: as §1
# [16] = target: Fuc(a1-2)Gal(b1-4)GlcNAc(b1-3)Gal(b1-4)GlcNAc
# In short: as §1
# [17] = target: Fuc(a1-2)Gal(b1-4)GlcNAc(b1-3)Gal(b1-4)GlcNAc(b1-3)Gal(b1-4)GlcNAc
# In short: as §1
# [18] = target: Fuc(a1-2)Gal(b1-4)GlcNAc6S
# In short: as §1
# [19] = target: Fuc(a1-2)Gal(b1-4)[Fuc(a1-3)]GlcNAc
# In short: as §1
# [20] = target: Fuc(a1-2)Gal(b1-4)[Fuc(a1-3)]GlcNAc(b1-2)Man(a1-3)[Fuc(a1-2)Gal(b1-4)[Fuc(a1-3)]GlcNAc(b1-2)Man(a1-6)]Man(b1-4)GlcNAc(b1-4)GlcNAc
# In short: as §1
# [21] = target: Fuc(a1-2)Gal(b1-4)[Fuc(a1-3)]GlcNAc(b1-3)Gal(b1-4)[Fuc(a1-3)]GlcNAc
# In short: as §1
# [22] = target: Fuc(a1-2)Gal(b1-4)[Fuc(a1-3)]GlcNAc(b1-3)Gal(b1-4)[Fuc(a1-3)]GlcNAc(b1-3)Gal(b1-4)[Fuc(a1-3)]GlcNAc
# In short: as §1
# [23] = target: Fuc(a1-2)Gal6S(b1-4)Glc
# In short: as §1
# [24] = target: Fuc(a1-2)Gal6S(b1-4)Glc6S
# In short: as §1
# [25] = target: Fuc(a1-2)Gal6S(b1-4)GlcNAc
# In short: as §1
# [26] = target: Fuc(a1-2)[Gal(a1-3)]Gal
# In short: as §1
# [27] = target: Fuc(a1-2)[Gal(a1-3)]Gal(b1-3)GlcNAc
# In short: as §1
# [28] = target: Fuc(a1-2)[Gal(a1-3)]Gal(b1-3)GlcNAc(b1-2)Man(a1-3)[Fuc(a1-2)[Gal(a1-3)]Gal(b1-3)GlcNAc(b1-2)Man(a1-6)]Man(b1-4)GlcNAc(b1-4)GlcNAc
# In short: as §1
# [29] = target: Fuc(a1-2)[Gal(a1-3)]Gal(b1-4)Glc
# In short: as §1
# [30] = target: Fuc(a1-2)[Gal(a1-3)]Gal(b1-4)GlcNAc
# In short: as §1
binder,measurement,setting,value
B1,glycan array binding signal (z-score),[1],-0.167
same,glycan array binding signal (z-score),[2],-0.499
same,glycan array binding signal (z-score),[3],0.476
same,glycan array binding signal (z-score),[4],-0.528
same,glycan array binding signal (z-score),[5],-0.465
same,glycan array binding signal (z-score),[6],-0.497
same,glycan array binding signal (z-score),[7],-0.618
same,glycan array binding signal (z-score),[8],-0.112
same,glycan array binding signal (z-score),[9],-0.448
same,glycan array binding signal (z-score),[10],0.111
same,glycan array binding signal (z-score),[11],0.545
same,glycan array binding signal (z-score),[12],-0.047
same,glycan array binding signal (z-score),[13],0.321
same,glycan array binding signal (z-score),[14],-0.268
same,glycan array binding signal (z-score),[15],-0.199
same,glycan array binding signal (z-score),[16],-0.612
same,glycan array binding signal (z-score),[17],-0.402
same,glycan array binding signal (z-score),[18],0.066
same,glycan array binding signal (z-score),[19],0.056
same,glycan array binding signal (z-score),[20],-0.281
same,glycan array binding signal (z-score),[21],-0.194
same,glycan array binding signal (z-score),[22],-0.49
same,glycan array binding signal (z-score),[23],-0.576
same,glycan array binding signal (z-score),[24],0.416
same,glycan array binding signal (z-score),[25],2.96
same,glycan array binding signal (z-score),[26],0.343
same,glycan array binding signal (z-score),[27],-0.572
same,glycan array binding signal (z-score),[28],-0.205
same,glycan array binding signal (z-score),[29],-0.655
same,glycan array binding signal (z-score),[30],-0.488

# Source: the supplement of paper PMC8728848
